{
  "source": "PubChem BioAssay AID485294",
  "about": "(National Center for Advancing Translational Sciences (NCATS), 2010)",
  "note": "The campaign covered roughly 370,000 compounds. About 150 (0.041%) were called active. The inconclusive results got no clear call from the source; some entries with a clear call stand among them for comparison. Calls follow the shape of the dose curve; as a rule, active = well fitted inhibition curve with a large enough effect; inconclusive = small, poorly fitted or top-dose-only effect; inactive = flat fitted curve, though single readings scatter. No potency is given beside an inconclusive call; the fits are too rough.",
  "data": [
    {"target": "Beta-lactamase (Escherichia coli (strain K12)) (UniProt P00811)", "sequence (P00811 whole entry, looked up)": "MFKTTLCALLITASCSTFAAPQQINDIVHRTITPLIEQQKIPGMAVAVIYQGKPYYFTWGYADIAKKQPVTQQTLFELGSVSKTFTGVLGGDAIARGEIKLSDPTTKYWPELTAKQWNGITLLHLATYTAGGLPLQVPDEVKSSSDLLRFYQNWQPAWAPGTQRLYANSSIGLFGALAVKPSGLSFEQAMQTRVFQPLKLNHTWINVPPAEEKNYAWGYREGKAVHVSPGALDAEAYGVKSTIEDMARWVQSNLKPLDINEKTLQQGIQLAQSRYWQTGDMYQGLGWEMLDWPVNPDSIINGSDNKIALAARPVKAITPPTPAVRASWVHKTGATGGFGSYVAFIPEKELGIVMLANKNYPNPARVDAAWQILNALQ", "assay": "qHTS Inhibitors of AmpC Beta-Lactamase (assay with detergent); also: nearly all actives have a fitted effect of over 25% in size; also: potency is read from the fitted curve at half-maximal effect; tags tell the direction and shape of the fitted curve", "settings": "AmpC hydrolysis of nitrocefin, absorbance 480 nm, 0.01% Triton; series mostly up to 114 µM", "procedure,_shortened": "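AmpC (5.3 nM in the dispensed reagent) in 20 mM phosphate pH 7.0 with 0.01% (detergent screen) or 0.0001% Triton X-100 was preincubated with compounds for 15 min at room temperature. Nitrocefin was then added from an 800 uM solution, and hydrolysis was followed at 480 nm.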", "values": [
      {"compound": "NC1=NC(c2ccc(Cl)cc2)n2c(nc3ccccc32)N1", "note": "(centres undefined)", "Potency": "inconclusive [inhibitor, full curve, poor fit]"},
      {"compound": "N=c1c2ccccc2nnn1-c1cccc(C(F)(F)F)c1", "Potency": "inactive"},
      {"compound": "COc1ccccc1NC(=O)N1CCCC(c2nc3c(nnn3Cc3ccc(C)cc3)c(=O)[nH]2)C1", "note": "(centres undefined)", "Potency": "inactive"},
      {"compound": "CC1=C(C(=O)OC(C)C)C(c2cccc(F)c2)n2ncnc2N1", "note": "(centres undefined)", "Potency": "inconclusive [inhibitor, full curve]"},
      {"compound": "CCOc1ccc(CCN2C(=O)C3C4C=CC(C4)C3C2=O)cc1OCC", "note": "(centres undefined)", "Potency": "inactive"},
      {"compound": "CCCCCCNC(=O)N[C@H](Cc1ccc(O)cc1)C(=O)NCCC[C@H]1CN2C(=NC[C@H]2CCC)N1CC1CCC1", "Potency": "inactive"},
      {"compound": "O=C(c1ccc(S(=O)(=O)N2CCOCC2)cc1)N(Cc1ccco1)Cc1cccs1", "Potency": "inconclusive [inhibitor, partial curve]"},
      {"compound": "CCCCOC(=O)C1Cc2ccccc2C(=O)O1", "note": "(centres undefined)", "Potency": "inconclusive [inhibitor, partial curve, poor fit]"},
      {"compound": "NNC(=O)c1cccc(Cn2cc(Br)c([N+](=O)[O-])n2)c1", "Potency": "inactive"},
      {"compound": "Cn1c(SCC(=O)NCc2ccco2)nnc1-c1ccc(S(=O)(=O)N2CCOCC2)cc1", "Potency": "inconclusive [inhibitor, partial curve, poor fit]"},
      {"compound": "CC(=O)Nc1ccccc1OC(C)C(=O)NC(C)c1ccc(F)cc1", "note": "(centres undefined)", "Potency": "inconclusive [inhibitor, full curve, poor fit]"},
      {"compound": "CCOC(=O)c1c(NC(=O)C(C)N2CCN(S(=O)(=O)c3cccs3)CC2)sc2c1CCC(C)C2", "note": "(centres undefined)", "Potency": "inconclusive [inhibitor, partial curve, poor fit]"},
      {"compound": "Cn1nc(-c2ccc(OCC(N)=O)cc2)c2ccccc2c1=O", "Potency": "inconclusive [inhibitor, full curve, poor fit]"},
      {"compound": "COc1ccc(/C=C2/SC(=S)N(CCCC(=O)Nc3cccc(O)c3)C2=O)cc1", "Potency": "inactive"},
      {"compound": "Cc1ccc(CNC(=O)c2ccc3nc4[nH]c5ccccc5c4nc3c2)cc1", "Potency": "inconclusive [inhibitor, full curve, poor fit]"},
      {"compound": "CCc1cc(=O)oc2cc(OCC(=O)NCCCn3ccnc3)ccc12", "Potency": "inconclusive [inhibitor, partial curve, poor fit]"},
      {"compound": "COc1cc(OC)cc(C(=O)Nc2ccccc2-c2nnn(CC(=O)Nc3cc(C)on3)n2)c1", "Potency": "inactive"},
      {"compound": "CCOCCn1ccc2c(OCC(=O)Nc3ccc(OC)c(OC)c3)cccc2c1=O", "Potency": "inconclusive [inhibitor, full curve]"},
      {"compound": "Cc1ccccc1Nc1nc(N)c2ccccc2n1", "Potency": "inconclusive [inhibitor, single point]"}
    ]}
  ]
}
